Source: the supplement of paper PMC12217912
The list shows a part of the results. The full chains were built here from the parent and the listed change. Values near 0.05 are background.

B1: TEV protease; numbered along this chain (parent)
chain: MGESLFKGPRDYNPISSSICHLTNESDGHTTSLYGIGFGPFIITNKHLFRRNNGTLVVQSLHGVFKVKDTTTLQQHLVDGRDMIIIRMPKDFPPFPQKLKFREPQREERICLVTTNFQTKSMSSMVSDTSCTFPSGDGIFWKHWIQTKDGQCGSPLVSTRDGFIVGIHSASNFTNTNNYFTSVPKNFMELLTNQEAQQWVSGWRLNADSVLWGGHKVFMVKPEEPFQPVKEATQL

Variants of: B1
Assay: raw area under fraction-flipped curve 0-4 h after induction (AUC4h, not background-subtracted), DNA-recorder readout of cleavage of the substrate (dimensionless); higher = more cleavage of the substrate by the protease variant
Conditions: temperature: 34 °C; time window: 0-4 h after rhamnose induction
Experimental: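 In vivo DNA recorder in E. coli TOP10(DE3) ΔrhaA at 34 °C. Each TEVp single-site mutant (parent TEVp 0) is paired with a single-site variant of the 7-mer TEVs (canonical ENLYFQ|S). The substrate sits between flexible linkers in a Bxb1-sfGFP-TEVs-SsrA fusion, so cleavage stabilises Bxb1 and speeds flipping of a recombination array, read by NGS. The value is the raw area under the fraction-flipped curve over 0-4 h after rhamnose induction (AUC4h), with ≥20 reads per time point. It is not background-subtracted; inactive controls average about 0.047.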
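Note: Bxb1 expression induced with 0.2% (w/v) L-rhamnose at OD600 near 0.5, cultures sampled hourly, flipped fraction per protease–substrate barcode pair counted by paired-end Illumina sequencing.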

Row | Variant | area with substrate ENLYFAS | area with substrate ENLYFFS | area with substrate ENLYFIS | area with substrate ENLYFKS | area with substrate ENLYFLS | area with substrate ENLYFMS | area with substrate ENLYFNS | area with substrate ENLYFPS | area with substrate ENLYFRS | area with substrate ENLYFSS | area with substrate ENLYFTS | area with substrate ENLYFWS | area with substrate ENLYFYS | area with substrate ENLYFCS | area with substrate ENLYFES | area with substrate ENLYFGS | area with substrate ENLYFHS | area with substrate ENLYFDS | area with substrate ENLYFVS
1 | P14E | 0.0668 | 0.0995 | 0.0584 | 0.0582 | 0.0626 | 0.0602 | 0.0654 | 0.0587 | 0.0643 | 0.0437 | 0.0594 | 0.0599 | 0.0596 |  |  |  |  |  | 
2 | P14K | 0.0636 | 0.0791 | 0.053 | 0.0699 |  | 0.0709 | 0.0556 | 0.0666 | 0.068 | 0.0604 | 0.0597 | 0.0558 | 0.0569 | 0.0793 | 0.0566 | 0.06 | 0.0718 |  | 
3 | P14H | 0.0672 | 0.0679 | 0.0593 | 0.0654 | 0.053 | 0.076 | 0.068 | 0.0648 | 0.0549 |  |  | 0.0576 |  | 0.0675 |  |  | 0.0478 | 0.0536 | 
4 | S26E | 0.0657 | 0.0679 | 0.0532 | 0.0667 |  | 0.0651 | 0.0532 |  | 0.071 |  | 0.0583 | 0.055 | 0.0539 | 0.053 | 0.0668 | 0.0891 | 0.0647 | 0.0565 | 0.0626
5 | S26R | 0.0609 | 0.0625 | 0.0587 | 0.0628 | 0.0917 | 0.0543 | 0.0615 | 0.0684 | 0.0632 |  | 0.0561 | 0.044 |  | 0.0513 |  |  |  |  | 0.0863
6 | Y12C | 0.0571 | 0.0643 | 0.0668 | 0.0629 | 0.067 | 0.0648 | 0.0718 | 0.0597 | 0.065 | 0.058 | 0.0645 | 0.0485 | 0.0558 | 0.0653 | 0.0591 |  |  |  | 0.0582
7 | Y12M | 0.0989 | 0.0754 | 0.0545 | 0.0663 | 0.056 | 0.0578 |  | 0.0623 |  | 0.0479 | 0.0535 | 0.0474 | 0.0506 | 0.0671 | 0.0601 | 0.061 | 0.0705 |  | 0.0679
8 | T23E | 0.0561 | 0.0927 | 0.0461 | 0.0577 | 0.0392 | 0.0641 | 0.0755 | 0.062 | 0.061 | 0.0564 | 0.0691 |  | 0.0632 | 0.0723 |  | 0.0631 | 0.0485 | 0.0569 | 
9 | T23A | 0.0627 | 0.0712 | 0.0557 | 0.0626 | 0.071 | 0.0668 | 0.0636 | 0.0613 | 0.0666 | 0.0344 |  | 0.058 |  |  | 0.0586 |  | 0.0561 |  | 
10 | T23K | 0.0646 |  | 0.0586 | 0.0547 |  | 0.0612 | 0.0574 | 0.056 | 0.0527 |  |  |  | 0.0716 | 0.0778 | 0.062 | 0.0856 | 0.0604 |  | 0.0537
11 | S18Q | 0.0613 | 0.0577 | 0.0586 |  | 0.0493 | 0.0654 | 0.07 |  | 0.0605 |  |  | 0.051 |  | 0.0879 | 0.0756 | 0.0462 | 0.0507 | 0.0585 | 
12 | G28Q | 0.0606 | 0.067 | 0.0534 |  |  | 0.0609 |  | 0.0557 |  | 0.0592 | 0.0639 | 0.0635 |  | 0.0617 | 0.0499 |  | 0.0609 |  | 
13 | C20L | 0.0623 | 0.0676 | 0.0511 | 0.0557 | 0.0629 | 0.0577 | 0.0634 |  | 0.0471 | 0.0637 | 0.0529 | 0.0502 |  | 0.0564 | 0.0777 |  | 0.0483 | 0.0625 | 
14 | C20W | 0.0404 | 0.0446 | 0.0429 | 0.0578 | 0.0403 | 0.0356 | 0.0422 | 0.0452 | 0.0366 | 0.0345 | 0.0347 | 0.0449 | 0.0243 | 0.0367 | 0.0442 | 0.046 | 0.0503 | 0.0584 | 0.0419
15 | S17P | 0.0434 | 0.0288 | 0.0553 | 0.0441 |  | 0.0582 |  | 0.0667 | 0.0714 |  |  |  |  | 0.062 | 0.0591 |  | 0.0705 | 0.0527 | 
16 | H29I | 0.0436 |  | 0.0419 | 0.0585 |  | 0.0458 | 0.0524 |  |  | 0.0627 | 0.0601 | 0.0328 | 0.0526 | 0.063 | 0.0569 | 0.065 | 0.065 |  | 0.0491
17 | H29M | 0.0557 | 0.0705 | 0.0471 | 0.0663 |  | 0.0824 | 0.0567 | 0.0676 | 0.0441 |  | 0.0606 | 0.0663 | 0.0707 | 0.0681 | 0.0618 |  | 0.0335 |  | 0.0375
18 | I15P | 0.0495 | 0.0505 | 0.054 |  | 0.0549 | 0.0615 | 0.0522 | 0.0493 | 0.0577 |  |  |  | 0.0493 | 0.05 | 0.0618 | 0.0595 | 0.0677 |  | 0.0581
19 | H21V | 0.0636 | 0.0772 | 0.0571 |  | 0.0462 | 0.0567 | 0.0616 | 0.0565 | 0.0528 | 0.0816 | 0.0643 | 0.0649 | 0.0496 |  | 0.0558 |  |  |  | 0.0573
20 | L22C | 0.0506 | 0.0682 | 0.0589 |  | 0.0506 | 0.0715 | 0.087 | 0.0502 |  | 0.0573 | 0.0425 | 0.0503 | 0.0455 | 0.0587 | 0.0638 | 0.0657 | 0.0513 | 0.0769 | 0.071
21 | L22D | 0.0495 | 0.0483 | 0.0419 | 0.0462 | 0.0365 | 0.0412 | 0.0501 | 0.045 | 0.0413 | 0.0468 | 0.0405 |  | 0.0448 | 0.0435 | 0.0718 |  | 0.0451 |  | 0.0351
22 | N13M | 0.0514 | 0.0645 | 0.069 | 0.0579 |  | 0.0788 |  | 0.0541 | 0.0686 | 0.046 | 0.0593 |  | 0.0632 | 0.0637 | 0.0512 |  | 0.0679 |  | 0.0564
23 | N13H | 0.0522 | 0.0711 | 0.0629 |  | 0.0524 | 0.065 | 0.0507 | 0.0565 | 0.0627 |  | 0.0342 | 0.0566 | 0.0559 | 0.0535 | 0.0571 |  | 0.0565 | 0.0718 | 
24 | D27G | 0.0569 | 0.0706 | 0.0919 | 0.117 |  | 0.0702 | 0.0623 | 0.0468 |  |  |  | 0.0444 |  |  | 0.0616 | 0.0297 | 0.0194 | 0.0548 | 
25 | D27S | 0.0582 | 0.0541 | 0.0607 |  | 0.0614 | 0.068 | 0.0414 | 0.0617 | 0.0553 |  | 0.0643 | 0.0556 |  |  | 0.0668 |  | 0.0526 |  | 0.0567
